Laboratory results: the BET-seq Pho4 binding data (Le et al. 2018)
This is one part of the list. These are noisy estimates, calculated here from bound and input reads.

molecular target: T1, Pho4 (S. cerevisiae) (UniProt P07270); assay: relative binding free energy (BET-seq); higher = weaker binding; settings: reference: library average
T1 sequence: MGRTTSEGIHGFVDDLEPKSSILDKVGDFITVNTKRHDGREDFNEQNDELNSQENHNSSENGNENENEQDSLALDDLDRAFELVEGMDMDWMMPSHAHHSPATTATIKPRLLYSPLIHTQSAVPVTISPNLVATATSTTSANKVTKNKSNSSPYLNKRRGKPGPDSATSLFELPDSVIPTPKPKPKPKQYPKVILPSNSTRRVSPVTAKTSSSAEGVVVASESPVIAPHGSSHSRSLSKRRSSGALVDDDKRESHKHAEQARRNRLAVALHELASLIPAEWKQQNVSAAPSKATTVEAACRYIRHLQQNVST

Sequence | relative binding free energy [kcal/mol]
TTTTCCACGTGGGCTG | -0.15
AGGCTCACGTGGGTGG | 0.05
TCGTTCACGTGAGTGT | 0.18
TTATACACGTGGAGAG | 0.09
CAGGCCACGTGTTGGT | -0.01
CGTGGCACGTGTCTTT | -0.07
GAGTTCACGTGACGTG | 0.55
CTGGGCACGTGGTGCT | -0.13
TAATTCACGTGGATTA | 0.24
CGTTGCACGTGGATTT | 0.08
AGAGTCACGTGTAGTT | 0.21
GGCCGCACGTGGTATG | -0.09
GTATGCACGTGAAGAT | 0.2
TGTTTCACGTGGGGGA | 0.18
TGTAACACGTGGTTAG | -0.12
AGTGTCACGTGCTATG | 0.02
CGTTACACGTGTGTTA | 0.06
GAAGGCACGTGTCGGA | -0.12
AGCTGCACGTGTTGAT | 0.14
GTAGTCACGTGATTAT | 0.22
TTTGGCACGTGTAATA | 0.05
CTGGACACGTGGTCGT | -0.05
ACGGGCACGTGTAGTT | -0.07

Sequence | relative binding free energy [kcal/mol]
GGCTGCACGTGCTTGT | -0.04
AATTTCACGTGGGGGA | 0.19
GTTTACACGTGCATGG | 0.26
TGACTCACGTGGGTCT | 0.14
AGAGACACGTGGCTGG | -0.04
GTAGACACGTGTTTAA | 0.08
CTAGGCACGTGAAGTG | 0.01
TATCACACGTGTGGTC | 0.22
GTGGGCACGTGCCTGT | -0.32
TTAAGCACGTGGTTGA | -0.17
GTCGTCACGTGCGTTG | 0.08
CGTGTCACGTGGAGTA | 0.05
TAGTTCACGTGGTACT | 0.1
CTTTTCACGTGGGTCG | 0.09
GTTTGCACGTGCGTGG | 0.07
TTTGTCACGTGGAGTT | 0.11
ATAATCACGTGCTTGT | 0.04
TTGGGCACGTGTATTA | -0.07
ATGTTCACGTGGGTGC | 0.07
GGATGCACGTGAGGTT | 0.26
AAAGGCACGTGCAGGG | -0.13
AGGGTCACGTGCGTGC | -0.07
TGGTGCACGTGATTGA | 0.14

Sequence | relative binding free energy [kcal/mol]
AGGGGCACGTGTATCG | -0.1
TTAGGCACGTGTGTGC | -0.05
TATATCACGTGTGTAT | 0.15
AGCTACACGTGATGGT | 0.24
AATGGCACGTGTCGGT | -0.2
GTTTACACGTGCAGGT | 0.17
TGGTTCACGTGTCGGC | 0.33
TGGGGCACGTGACGTT | 0.06
CTGGGCACGTGATTTG | 0.06
AGGGTCACGTGGGTCA | -0.04
GACAGCACGTGTGGGT | -0.04
ATTGACACGTGTGATT | 0.17
TATGGCACGTGATTGC | -0.09
TGCGTCACGTGAGCTG | 0.34
GTGTACACGTGCGGCT | 0.07
ATAAGCACGTGAGGGT | 0.2
GTTCACACGTGAGTGA | 0.35
ACAGTCACGTGTAGGT | 0.02
AGTAACACGTGTGACT | 0.23
AGGGTCACGTGTCCAG | 0.1
AATGTCACGTGGGGTC | 0.02
AAAAGCACGTGGATTT | -0.01
GGTGACACGTGGGAGC | 0.03

Sequence | relative binding free energy [kcal/mol]
TTATACACGTGTATGG | -0.07
TGAGGCACGTGGGAGG | -0.17
TGAAGCACGTGAAATT | 0.27
AATAGCACGTGGGATA | -0.17
ATTATCACGTGATGAT | 0.22
TTAGTCACGTGCTGGA | -0.09
AATAGCACGTGGTTTA | -0.07
GGGAGCACGTGTGTCT | -0.16
TGTAACACGTGAGTAG | 0.03
AGTATCACGTGGGCGC | 0.03
ATAAGCACGTGGGGGG | -0.23
TCGAACACGTGTTGGT | 0.1
GTTGGCACGTGATGGA | 0.01
GGGCCCACGTGTTGTG | -0.08
CTTGGCACGTGGGGAA | -0.13
AGGCGCACGTGGGCAG | -0.3
TTGAACACGTGGTGTT | -0.1
ATTCGCACGTGTTTGT | -0.06
TGTGACACGTGTATTA | -0.04
ATTTGCACGTGTGGGT | -0.01
AGAGGCACGTGGTTTA | -0.07
ATGTTCACGTGCGGCT | 0.15
TTGTGCACGTGCTCTG | -0.08

Sequence | relative binding free energy [kcal/mol]
TGAAACACGTGGAGGG | 0.07
GGGGACACGTGAATCG | 0.34
ATTCACACGTGGTAGT | -0.08
AGGGTCACGTGTCGGC | 0.17
CTCGGCACGTGGTTTG | -0.17
TAGTCCACGTGAGTTG | 0.3
TGGGGCACGTGGAAGG | -0.05
GGGGTCACGTGATAAA | 0.33
AGTGCCACGTGGGCAT | -0.21
AAGGGCACGTGGTGCA | -0.35
GCGAGCACGTGTAGGG | -0.24
CGTGGCACGTGTATAT | -0.09
AGCAACACGTGGTGTG | -0.08
ATGGACACGTGATGTT | 0.03
TTGCGCACGTGGGGAT | -0.2
GAGGGCACGTGTCAGT | -0.13
GGGGACACGTGGTGCC | -0.1
ATTGTCACGTGGACTG | 0.19
GGTTTCACGTGGCTGA | 0.43
GGGCGCACGTGAAGGG | 0.15
ATTTACACGTGTGTAT | 0.13
TTAAGCACGTGTCAGT | -0.12
TGGTTCACGTGTGGGA | 0.37
